# From PubChem BioAssay AID504706 (National Center for Advancing Translational Sciences (NCATS), 2011)
# About 200 (0.062%) of roughly 320,000 compounds were called active. The shares of active, inactive and inconclusive entries below differ from those in the screen. Calls follow the shape of the dose curve; as a rule, active = well fitted activation curve with a large enough effect; inconclusive = small, poorly fitted or top-dose-only effect; inactive = no such curve, though single readings can be large or run the other way. No potency is given beside an inconclusive call; the fits are too rough.
# Test: qHTS assay for re-activators of p53 using a Luc reporter; also: nearly all actives have a fitted effect of over 45% in size; as to activity change, positive = activation: % of control where 0% means no effect
# Conditions: H1299 p53-A138V BP100-luciferase reporter, luminescence, 24 h; series mostly up to 92.2 µM; activity change, positive = activation: at the top concentration
# Outline: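 p53-null H1299 cells stably carrying temperature-sensitive p53-A138V and a BP100-luciferase reporter were pinned with compounds (4-point, 1:5 series) and held 24 hrs at 37 deg C. Luminescence was read 10 min after detection reagent.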
# Potency is read from the fitted curve at half-maximal effect; tags tell the direction and shape of the fitted curve.
Compound,Potency,"activity change, positive = activation"
CC1=NN(c2nc3ccccc3[nH]2)C(=O)C1Cc1ccccc1 (stereo unspecified),"inconclusive [activator, full curve, poor fit]",–
CC(C)CCNC(=S)Nc1ccc([N+](=O)[O-])cc1,"inconclusive [activator, single point]",–
CCN(CC)c1ccc2c(C)cc(=O)oc2c1,–,inactive: -4.19%
O=C(Nc1ccc(NC(=O)c2ccco2)nc1)c1ccccn1,"inconclusive [activator, full curve, poor fit]",–
COc1ccc(C(=O)NCCn2cc(SCC(=O)NCc3ccco3)c3ccccc32)cc1,–,inactive: 27.7%
COc1ccc(CNC(=O)CN2C(=O)NC3(CCCCCCC3)C2=O)cc1,–,inactive: 1.75%
Cc1[nH]c2ccccc2c1/C=C/c1nc2ccccc2c(=O)n1CCO,–,inactive: -3.56%
C/C(=N/O)c1ccc(Oc2cnccn2)cc1,–,inactive: 3.65%
Cc1ccsc1/C=N/Nc1nc2ccccc2[nH]1,"inconclusive [activator, full curve, poor fit]",–
CCCCN(CC)CCCNC(=S)Nc1ccc2nc(N3CCN(C)CC3)cc(C)c2c1,"inconclusive [activator, full curve, poor fit]",–
CC1(C)C2CCC1(C)C(NC(=O)/C=C/c1ccccc1)C2 (stereo unspecified),–,inactive: 18.1%
CCCn1c(C)cc(/C=C(\C#N)C(=O)OCC(=O)Nc2cc(OC)c(OC)c(OC)c2)c1C,"inconclusive [activator, partial curve, poor fit]",–
Cc1onc(-c2ccccc2Cl)c1C(=O)NCc1ccc(F)cc1,"inconclusive [activator, single point]",–
COC(=O)c1ccccc1NC(=O)C(=O)NCC1CCCO1 (stereo unspecified),"inconclusive [activator, partial curve, poor fit]",–
Cc1c(C(=O)Nc2ccccc2)csc1-c1ccccc1,"inconclusive [activator, full curve, poor fit]",–
CCOC(=O)c1nn(-c2ccc(F)cc2)cc1O,"inconclusive [activator, partial curve, poor fit]",–
Cn1cnnc1SCC(=O)Nc1ccc2nc(SCc3ccccc3F)sc2c1,"inconclusive [activator, full curve, poor fit]",–
Cc1cccc(-c2nc(C#N)c(NCC3CCCO3)o2)c1 (stereo unspecified),"inconclusive [activator, partial curve, poor fit]",–
COc1ccc(NC(=O)COc2cccc3c2CCN(Cc2cccnc2)C3=O)c(OC)c1,"inconclusive [activator, single point]",–
Brc1ccc(C2NCCS2)cc1 (stereo unspecified),"inconclusive [activator, single point]",–
O=C(Nc1ccc(NC(=O)c2cccs2)cc1)c1ccc2c(c1)OCCO2,–,inactive: -1.61%
CCCC(=O)N(c1ccc(F)cc1)C1C=CS(=O)(=O)C1 (stereo unspecified),"inconclusive [activator, single point]",–
COc1cc(NC(=S)N2CCN(CCO)CC2)cc(OC)c1,"inconclusive [activator, single point]",–
CCC(=O)c1ccc(OCC(=O)OCC(=O)c2cc(C)n(CC3CCCO3)c2C)cc1 (stereo unspecified),–,inactive: 4.78%

Compound,Potency,"activity change, positive = activation"
C/C(=N\NC(=S)NCCc1ccccc1)c1ccc(Cl)cc1,"inconclusive [activator, partial curve, poor fit]",–
Cc1ccc(C=Nc2ccccc2C(N)=O)cc1,"inconclusive [activator, full curve, poor fit]",–
COc1cc(CNCc2ccc(SC)cc2)cc(OC)c1,–,inactive: 8.48%
O=C(Nc1ccc(N2CCOCC2)c(Cl)c1)c1cccc(F)c1,"inconclusive [activator, full curve, poor fit]",–
O=C(NCCC1=CCCCC1)C(=O)c1c[nH]c2ccccc12,"inconclusive [activator, partial curve, poor fit]",–
COc1ccc(/C(C)=N/NC(=O)c2ccccc2OCc2ccccc2)c(OC)c1,–,inactive: 7.06%
O=C(CSc1ccc(-c2ccco2)nn1)NCc1ccc(F)cc1,–,inactive: -7.1%
CCN(CC)C(=O)C1CCN(c2ncnc3c2cnn3-c2ccc(C)cc2C)CC1,"inconclusive [activator, partial curve, poor fit]",–
COc1ccc(/C=C/c2ccc3cccc(O)c3n2)c(OC)c1OC,"inconclusive [activator, partial curve, poor fit]",–
O=C(Oc1ccc2ccc(O)cc2c1)c1ccccc1Cl,"inconclusive [activator, partial curve, poor fit]",–
NC(=O)N=Nc1c2[nH]c3ccccc3nc-2c2ccccc12,–,inactive: -7.4%
CC(C(=O)NC1=NCCS1)N1C(=O)c2ccccc2C1=O (stereo unspecified),"inconclusive [activator, single point]",–
Cc1cc(C)nc(SCC2COc3ccccc3O2)n1 (stereo unspecified),"inconclusive [activator, single point]",–
CN(C(=O)CSc1nc(N)cc(N)n1)C1CCS(=O)(=O)C1 (stereo unspecified),"inconclusive [activator, partial curve, poor fit]",–
S=c1[nH]c2cc(Br)cnc2[nH]1,–,inactive: 2.38%
C[C@H](CO)N1C[C@H](C)[C@@H](CN(C)S(C)(=O)=O)Oc2c(NC(=O)Nc3ccc(C(F)(F)F)cc3)cccc2C1=O,"inconclusive [activator, single point]",–
COC(=O)c1cc2c(s1)-c1ccc(OC)cc1CC2,–,inactive: 16.1%
CCC(CC)C(=O)Nc1c2c(nn1-c1ccc(OC)cc1)CS(=O)C2 (stereo unspecified),–,inactive: -0.585%
COC(=O)[C@H](CCSC)NC(=O)Cn1cnc(C(=O)Nc2ccc(C)c(C)c2)n1,"inconclusive [activator, partial curve, poor fit]",–
O=C(COC(=O)c1ccco1)NC1CCCCC1,"inconclusive [activator, single point]",–
Cc1cc(/C=N/n2c(COc3ccccc3C)nc3ccccc3c2=O)c(O)c([N+](=O)[O-])c1,"inconclusive [activator, full curve, poor fit]",–
O=C(COC(=O)CSc1ccc(F)cc1)NCc1ccco1,"inconclusive [activator, single point]",–
c1cnc(-c2nnc3n2CCCCC3)cn1,"inconclusive [activator, partial curve, poor fit]",–
Fc1ccc(-c2nnc(Cc3nnc(-c4ccc(F)cc4)o3)o2)cc1,–,inactive: -6.53%

Compound,Potency,"activity change, positive = activation"
CN1C(=O)CC(N2CCN(CC(=O)N3CCCC3)CC2)C1=O (stereo unspecified),–,inactive: 0.242%
Cc1ccc(OCC(=O)Oc2c(C)cccc2C)cc1C,"inconclusive [activator, single point]",–
CN(C)CCCOC(=O)COc1ccc(Br)cc1,–,inactive: 1.96%
O=c1c2cc(NC(=S)NCCCN3CCC(Cc4ccccc4)CC3)ccc2nc2n1CCCCC2,–,inactive: -3.43%
COc1ccccc1CC(=O)Nc1ccc(Cl)cc1C(=O)O,–,inactive: -0.768%
Cc1ccc(C(=O)CC(c2cccs2)S(=O)(=O)c2ccc(C)cc2)cc1 (stereo unspecified),"inconclusive [activator, full curve, poor fit]",–
CC(C)COc1ccc(C(=O)Nc2ccc(SC(F)F)cc2)cc1,"inconclusive [activator, full curve, poor fit]",–
Cc1oc(C(=O)O)cc1CSCc1cc(C(=O)O)c(C)o1,"inconclusive [activator, partial curve, poor fit]",–
CCn1c(=N)n(CC(=O)C23CC4CC(CC(C4)C2)C3)c2ccccc21,"inconclusive [activator, single point]",–
c1ccc(Nc2nc(N3CCCC3)nc(N3CCCC3)n2)cc1,–,inactive: 2.33%
CC(=O)Nc1ccc(S(=O)(=O)Oc2ccc3c(c2)C(C)=CC(C)(C)N3)cc1,"inconclusive [activator, partial curve, poor fit]",–
CCN1/C(=C/c2ccc3cc(C)ccc3[n+]2CC)Sc2ccccc21,"inconclusive [activator, partial curve, poor fit]",–
O=c1cc(N2CCCCC2)c2ccccc2o1,–,inactive: -2.46%
O=C(OCc1ccccc1)c1cccc(-c2nnc(-c3ccccc3)o2)c1,"inconclusive [activator, full curve, poor fit]",–
O=C(COc1ccccc1)Nc1nccs1,"inconclusive [activator, full curve, poor fit]",–
O=C(Nc1ccc2oc(-c3ccccc3)nc2c1)c1ccco1,"inconclusive [activator, partial curve, poor fit]",–
COc1ccc(N2CCN(CCCNC(=O)c3cc4sccc4n3C)CC2)cc1,–,inactive: 4.25%
Cc1ccc(NC(=S)NNC(=O)c2ccco2)cc1,"inconclusive [activator, partial curve, poor fit]",–
COc1ccc(NC(=O)NCCN2C(=O)C3C4C=CC(C4)C3C2=O)cc1 (stereo unspecified),"inconclusive [activator, full curve, poor fit]",–
Cn1c(=O)c2c(nc(SCC(=O)c3cccs3)n2Cc2ccc(F)cc2)n(C)c1=O,–,inactive: 1.16%
COc1ccc(CNC(=O)Nc2ccc(C)cc2C)cc1,–,inactive: 0.501%
O=C(NCCC1=CCCCC1)c1ccc(-n2cncn2)cc1,"inconclusive [activator, full curve, poor fit]",–
CCOC(=O)c1c(C)[nH]c(N=Nc2ccc(C)cc2)c1C,"inconclusive [activator, partial curve, poor fit]",–
